{"source": "the supplement of paper PMC9446081", "note": "About 220 (0.56%) of roughly 39,000 compounds showed activity. This is one part of the list.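 Note: static incubation at 37 °C against the wild-type strain, values averaged over two biological replicates.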"}
{"tested_on": "Escherichia coli K-12 BW25113", "assay": "relative growth (OD600 normalised to plate interquartile mean) (fraction); higher = less growth inhibition, active = 0.2 or less", "details": "50 µM; LB; incubation time: overnight (16-24 h)"}
{"smiles": "C/C=C/C(=O)N1CCC=CC1=O", "relative growth": "inactive: 0.973"}
{"smiles": "Cn1c(=O)c2c(ncn2CC(=O)N2CCN(c3ccccc3)CC2)n(C)c1=O", "relative growth": "inactive: 0.982"}
{"smiles": "Cc1ccccc1S(=O)(=O)N1C[C@@H](O)COC[C@H]2O[C@H](CC(=O)N3CCOCC3)CC[C@@H]21", "relative growth": "inactive: 1"}
{"smiles": "COc1ccc(NC(=O)Nc2ccc3c(c2)C(=O)N([C@H](C)CO)C[C@H](C)[C@@H](CN(C)Cc2ccc(C(=O)O)cc2)OCCCC[C@@H](C)O3)cc1", "relative growth": "inactive: 1.01"}
{"smiles": "O=C(C[C@@H]1C[C@H]2c3cc(NC(=O)Nc4ccccc4)ccc3O[C@H]2[C@@H](CO)O1)NCCN1CCCCC1", "relative growth": "inactive: 1"}
{"smiles": "COc1ccc(N2C(=O)C[C@@H](c3ccc(Br)cc3)[C@H]2C(=O)Nc2cccc3cccnc23)cc1", "relative growth": "inactive: 1.02"}
{"smiles": "Cl.NC(=O)CCC(N)C(=O)O", "note": "(stereo not drawn)", "relative growth": "inactive: 1.03"}
{"smiles": "C[C@@H]1CCCCO[C@H](CN(C)C(=O)Nc2ccc(F)cc2)[C@@H](C)CN([C@H](C)CO)C(=O)c2cc(NC(=O)c3ccccc3)ccc2O1", "relative growth": "inactive: 1.04"}
{"smiles": "C=CCNC(=O)[C@H]1[C@@H]2C(=O)O[C@@H](c3ccccc3)[C@@H](c3ccccc3)N2[C@@H](c2ccc(O)cc2)[C@]12C(=O)N(C(=O)OCCOC)c1ccc(C#CC3(O)CCCCCC3)cc12", "relative growth": "inactive: 1.02"}
{"smiles": "C[C@H](CO)N1C[C@H](C)[C@H](CN(C)Cc2ccncc2)Oc2ccc(NS(=O)(=O)c3cccs3)cc2C1=O", "relative growth": "inactive: 1.02"}
{"smiles": "CC(C)C[C@H](NC(=O)[C@@H](NC(=O)CNC(=O)CN)C(C)C)C(=O)N[C@H](C(=O)N[C@@H](CCC(N)=O)C(=O)N1CCC[C@H]1C(=O)NCC(=O)O)C(C)C", "relative growth": "inactive: 0.99"}
{"smiles": "C[C@@H]1CN([C@@H](C)CO)C(=O)c2cccc(NS(=O)(=O)c3ccc(Cl)cc3)c2O[C@H]1CN(C)Cc1ccc(Oc2ccccc2)cc1", "relative growth": "inactive: 1.01"}
{"smiles": "C[C@H](CO)N1C[C@H](C)[C@H](CN(C)C(=O)NC2CCCCC2)Oc2ccc(NC(=O)C3CC3)cc2CC1=O", "relative growth": "inactive: 0.989"}
{"smiles": "Cc1ccc(S(=O)(=O)N(C)C[C@@H]2OCCCC[C@H](C)Oc3ccc(NC(=O)CCC(F)(F)F)cc3C(=O)N([C@@H](C)CO)C[C@H]2C)cc1", "relative growth": "inactive: 1.01"}
{"smiles": "C=CCOC(=O)[C@H]1[C@@H]2C(=O)O[C@@H](c3ccccc3)[C@@H](c3ccccc3)N2[C@@H](c2ccc(OCCOC(=O)[C@@H]3C[C@@H]4C(=O)N[C@@H](CCCC[N+](C)(C)C)C(=O)N4[C@@H]3c3ccc(O)cc3)cc2)[C@]12C(=O)Nc1ccccc12", "relative growth": "inactive: 0.988"}
{"smiles": "Nc1nnc(-c2ccno2)o1", "relative growth": "inactive: 0.961"}
{"smiles": "C[C@@H]1O[C@@H](O)[C@H](O)[C@H](O)[C@H]1O", "relative growth": "inactive: 0.985"}
{"smiles": "C[C@H]1CCCCO[C@H](CN(C)C(=O)Nc2ccc3c(c2)OCO3)[C@@H](C)CN([C@@H](C)CO)C(=O)c2cc(NS(=O)(=O)c3ccc(F)cc3)ccc2O1", "relative growth": "inactive: 1.01"}
{"smiles": "C[C@H](CO)N1C[C@H](C)[C@@H](CN(C)Cc2ccncc2)Oc2ccc(NS(=O)(=O)c3ccccc3)cc2C1=O", "relative growth": "inactive: 0.996"}
{"smiles": "C[C@H]1CCCCO[C@H](CN(C)C(=O)Nc2ccccc2)[C@@H](C)CN([C@@H](C)CO)C(=O)c2cc(NC(=O)Nc3ccc4c(c3)OCO4)ccc2O1", "relative growth": "inactive: 1.05"}
{"smiles": "O=C(C[C@@H]1CC[C@H]2[C@@H](COC[C@@H](O)CN2S(=O)(=O)c2ccc(Cl)cc2)O1)N[C@@H]1CCN(Cc2ccccc2)C1", "relative growth": "inactive: 0.971"}
{"smiles": "Cc1noc(C)c1NC(=O)N(C)C[C@H]1Oc2c(NC(=O)Nc3ccc(C(F)(F)F)cc3)cccc2C(=O)N([C@@H](C)CO)C[C@@H]1C", "relative growth": "inactive: 0.873"}
{"smiles": "C[C@@H]1CN([C@@H](C)CO)S(=O)(=O)c2ccc(C#CCN(C)C)cc2O[C@H]1CN(C)C", "relative growth": "inactive: 0.981"}
{"smiles": "C=CCC[C@H](Cc1ccc(F)cc1)C(=O)O[C@H](CNC(=O)[C@H](CC=C)CC(=O)N(CCO)Cc1ccccc1)c1ccccc1", "relative growth": "inactive: 1.06"}
{"smiles": "Clc1ccc2c(c1)[C@H]1C=CC[C@@H]1[C@@H](c1ccccc1)N2", "relative growth": "inactive: 1.05"}
{"smiles": "CC(C)NC(=O)Nc1ccc2c(c1)C(=O)N([C@@H](C)CO)C[C@H](C)[C@H](CN(C)Cc1ccc(Oc3ccccc3)cc1)O2", "relative growth": "inactive: 0.999"}
{"smiles": "Cc1noc(C)c1NC(=O)N(C)C[C@@H]1Oc2c(NS(C)(=O)=O)cccc2C(=O)N([C@H](C)CO)C[C@H]1C", "relative growth": "inactive: 0.842"}
{"smiles": "O=c1ccc2c[nH][nH]c-2c1", "relative growth": "inactive: 1.02"}
{"smiles": "C[C@@H]1CN([C@@H](C)CO)C(=O)c2cc(NC(=O)Nc3ccccc3)ccc2O[C@@H](C)CCCCO[C@H]1CN(C)Cc1ccc(Cl)c(Cl)c1", "relative growth": "inactive: 0.996"}
{"smiles": "C[C@@H]1CN([C@H](C)CO)C(=O)c2cc(NC(=O)Nc3ccc(C(F)(F)F)cc3)ccc2O[C@H]1CN(C)Cc1ccccc1", "relative growth": "inactive: 0.955"}
{"smiles": "C[C@H](CO)N1C[C@H](C)[C@H](CN(C)Cc2ccc(Oc3ccccc3)cc2)Oc2ccc(NC(=O)Nc3ccccc3)cc2CC1=O", "relative growth": "inactive: 0.979"}
{"smiles": "C[C@H]1CN([C@@H](C)CO)C(=O)c2cccc(NC(=O)Nc3ccc4c(c3)OCO4)c2O[C@@H]1CN(C)S(C)(=O)=O", "relative growth": "inactive: 1"}
{"smiles": "CC(C)NC(=O)Nc1ccc2c(c1)CC(=O)N([C@@H](C)CO)C[C@@H](C)[C@H](CN(C)Cc1ccc(Oc3ccccc3)cc1)O2", "relative growth": "inactive: 0.986"}
{"smiles": "COc1ccc(S(=O)(=O)N[C@H]2CC[C@H](CCNC(=O)CN3CCOCC3)O[C@H]2CO)cc1", "relative growth": "inactive: 1"}
{"smiles": "CCS(=O)(=O)Nc1ccc2c(c1)C(=O)N(C)[C@@H]1CC[C@H](CC(=O)NCCCN3CCOCC3)O[C@H]1CO2", "relative growth": "inactive: 1.01"}
{"smiles": "C[C@@H]1CN([C@H](C)CO)C(=O)c2c(c3ccccc3n2C)-c2ccccc2CO[C@H]1CN(C)S(=O)(=O)c1ccc(Cl)cc1", "relative growth": "inactive: 1.04"}
{"smiles": "COc1ccc(CN(C)C[C@H]2OCCCC[C@H](C)Oc3ccc(NC(=O)Nc4ccc(F)cc4)cc3C(=O)N([C@@H](C)CO)C[C@H]2C)cc1", "relative growth": "inactive: 0.974"}
{"smiles": "C[C@H]1CN([C@@H](C)CO)C(=O)Cc2cc(NS(C)(=O)=O)ccc2O[C@@H]1CN(C)Cc1ccc2c(c1)OCO2", "relative growth": "inactive: 0.981"}
{"smiles": "C[C@H](CO)N1C[C@H](C)[C@@H](CN(C)S(C)(=O)=O)OCCCC[C@H](C)Oc2ccc(NC(=O)c3ccncc3)cc2C1=O", "relative growth": "inactive: 0.955"}
{"smiles": "C[C@H]1CN([C@@H](C)CO)C(=O)Cc2cc(NC(=O)Cc3cn(C)c4ccccc34)ccc2O[C@@H]1CN(C)Cc1ccc(C(F)(F)F)cc1", "relative growth": "inactive: 1.06"}
{"smiles": "C[C@H](CO)N1C[C@H](C)[C@H](CN(C)CC2CCCCC2)Oc2ccc(NC(=O)Cc3cn(C)c4ccccc34)cc2CC1=O", "relative growth": "inactive: 1"}
{"smiles": "COc1ccc(S(=O)(=O)Nc2ccc3c(c2)C(=O)N([C@@H](C)CO)C[C@H](C)[C@H](CN(C)Cc2ccc(Cl)c(Cl)c2)OCCCC[C@@H](C)O3)cc1", "relative growth": "inactive: 1"}
{"smiles": "Cc1ccc(S(=O)(=O)N(C)C[C@@H]2OCCCC[C@@H](C)Oc3ccc(NC(=O)CCC(F)(F)F)cc3C(=O)N([C@@H](C)CO)C[C@@H]2C)cc1", "relative growth": "inactive: 1.01"}
{"smiles": "O=C(C[C@H]1C[C@@H]2c3cc(NC(=O)NC4CCCC4)ccc3O[C@@H]2[C@H](CO)O1)NCc1ccc(-c2ccccc2)cc1", "relative growth": "inactive: 0.983"}
{"smiles": "CC(C)CCN1CCn2c(CO)nnc2C1", "relative growth": "inactive: 1.02"}
{"smiles": "C[C@H](CO)N1C[C@H](C)[C@H](CN(C)Cc2ccc(Cl)c(Cl)c2)Oc2ccc(NS(=O)(=O)c3ccc(Cl)cc3)cc2CC1=O", "relative growth": "inactive: 1.01"}
{"smiles": "C[C@@H]1CN([C@@H](C)CO)C(=O)Cc2cc(NC(=O)Nc3ccc(C(F)(F)F)cc3)ccc2O[C@@H]1CN(C)C(=O)Nc1ccccc1", "relative growth": "inactive: 1.04"}
{"smiles": "C[C@@H]1CCCCO[C@H](CN(C)Cc2ccncc2)[C@@H](C)CN([C@H](C)CO)C(=O)c2cc(NC(=O)Nc3ccc(C(F)(F)F)cc3)ccc2O1", "relative growth": "inactive: 1.07"}
{"smiles": "CC(C)NC(=O)N(C)C[C@@H]1Oc2ccc(NS(=O)(=O)c3cccs3)cc2CC(=O)N([C@@H](C)CO)C[C@@H]1C", "relative growth": "inactive: 0.973"}
{"smiles": "CCO[C@H]1OC(C(=O)N2CCOCC2)=C[C@@H](c2coc3ccccc3c2=O)[C@@H]1CCCOC(=O)NCCCCCC(=O)NO", "relative growth": "inactive: 0.988"}
{"smiles": "CCCC(=O)Nc1ccc2c(c1)C(=O)N(C)[C@@H]1CC[C@H](CC(=O)NCCN3CCCCC3)O[C@@H]1CO2", "relative growth": "inactive: 1.01"}
{"smiles": "C[C@@H]1CN([C@@H](C)CO)C(=O)c2cc(NC(=O)CCN3CCOCC3)ccc2O[C@@H]1CN(C)S(=O)(=O)c1ccc(F)cc1", "relative growth": "inactive: 0.991"}
{"smiles": "C[C@@H]1CN([C@@H](C)CO)S(=O)(=O)c2ccc(C#Cc3cccnc3)cc2O[C@H]1CN(C)CC1CCCC1", "relative growth": "inactive: 1.03"}
{"smiles": "C[C@H](CO)N1C[C@H](C)[C@@H](CN(C)C(=O)CCC(F)(F)F)OCCCC[C@H](C)Oc2ccc(NC(=O)CCC(F)(F)F)cc2C1=O", "relative growth": "inactive: 1"}
{"smiles": "C[C@H](CO)N1C[C@H](C)[C@@H](CN(C)C(=O)C2CCOCC2)Oc2cc(C#Cc3ccncc3)ccc2S1(=O)=O", "relative growth": "inactive: 0.964"}
{"smiles": "C[C@@H]1CN([C@H](C)CO)C(=O)c2cc(NC(=O)Cn3cnnn3)ccc2O[C@H]1CN(C)S(=O)(=O)c1cn(C)cn1", "relative growth": "inactive: 0.996"}
{"smiles": "COc1ccc([C@@H]([C@H](Cc2ccccc2)OC(C)=O)N2C[C@@H](CC(=O)N(C)C)[C@@H]3C(=NO[C@H]3c3ccccc3)[C@@H]2Cc2ccccc2)cc1", "relative growth": "inactive: 1.02"}
{"smiles": "COc1ccc(C#Cc2ccc3c(c2)[C@]2(C(=O)N3)[C@H](c3ccc(O)cc3)N3[C@H](c4ccccc4)[C@H](c4ccccc4)OC(=O)[C@H]3[C@@H]2C(=O)O)cc1", "relative growth": "inactive: 1.01"}
